# Laboratory results taken from the supplement of paper PMC12645437, “Orthogonal IMiD-Degron Pairs Induce Selective Protein Degradation in Cells” (ACS Chemical Biology, 2025).
# Some of the results follow.
# Biological target: no compound (DMSO)
# Assay: log2 fold change of degron read counts, EGFP-low vs EGFP+ sorted cells; higher = lower degron-EGFP level without compound (poor expression or instability)
# Conditions: compound: DMSO control; 18 h
# 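Further: jurkat cells carrying a lentiviral library of mutant zinc finger degrons fused to EGFP plus mCherry, mCherry+ cells FACS sorted, degron abundance counted by next-generation sequencing.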
row,Sequence,log2 fold change of degron read counts
1,FTCEICGHIFTQKGNLLRHIKL,-1.45
2,FVCEVCGAMFTQKGNLLRHIKL,-0.809
3,FICEICGASFTQKGNLLRHIKL,-2.18
4,FFCPICGRPFTQKGNLLRHIKL,0.0529
5,FACPICGHRFTQKGNLLRHIKL,-0.49
6,FICDQCGAWFTQKGNLLRHIKL,-0.945
7,FQCDQCGADFTQKGNLLRHIKL,-2.71
8,LVCEICGFHCTQKGNLLRHIKL,-0.453
9,FLCDQCGACFTQKGNLLRHIKL,-1.17
10,FACPICGRQFTQKGNLLRHIKL,-0.159
11,FMCPICGHFFTQKGNLLRHIKL,0.756
12,FYCDICGAWFTQKGNLLRHIKL,0.335
13,LFCEICGFGCTQKGNLLRHIKL,0.551
14,FDCEICGRAFTQKGNLLRHIKL,-0.872
15,FDCEQCGARFTQKGNLLRHIKL,-1.61
16,FYCPQCGAWFTQKGNLLRHIKL,0.958

row,Sequence,log2 fold change of degron read counts
1,FDCNQCGAIFTQKGNLLRHIKL,-0.124
2,FHCEICGADFTQKGNLLRHIKL,-2.01
3,FECPQCGAAFTQKGNLLRHIKL,-1.84
4,FDCEICGASFTQKGNLLRHIKL,-2.09
5,FFCDQCGASFTQKGNLLRHIKL,-1.95
6,FICPICGRNFTQKGNLLRHIKL,0.0153
7,FICNQCGAEFTQKGNLLRHIKL,-1.14
8,FVCNICGAHFTQKGNLLRHIKL,-0.188
9,FLCEQCGATFTQKGNLLRHIKL,-1.51
10,FACPICGAHFTQKGNLLRHIKL,-0.056
11,FECEQCGAHFTQKGNLLRHIKL,-2.01
12,FACNQCGASFTQKGNLLRHIKL,-1.35
13,FYCEICGRWFTQKGNLLRHIKL,0.95
14,LHCPICGFDCTQKGNLLRHIKL,0.508
15,FSCNQCGHKFTQKGNLLRHIKL,0.0702
16,FVCEVCGAPFTQKGNLLRHIKL,-1.1
